Experimental data reported in paper PMC4336329 (PLoS ONE, 2015).
The whole screen tested about 310,000 compounds, of which about 2,200 (0.71%) showed an effect of 50% or more. Effects have a minus sign here. The list shows a part of the results.

biological target: human ether-à-go-go-related gene (hERG) potassium channel (human, UniProt Q12809); test: primary screen, population patch clamp on CHO cells stably expressing hERG
Sequence (Q12809 whole entry, looked up): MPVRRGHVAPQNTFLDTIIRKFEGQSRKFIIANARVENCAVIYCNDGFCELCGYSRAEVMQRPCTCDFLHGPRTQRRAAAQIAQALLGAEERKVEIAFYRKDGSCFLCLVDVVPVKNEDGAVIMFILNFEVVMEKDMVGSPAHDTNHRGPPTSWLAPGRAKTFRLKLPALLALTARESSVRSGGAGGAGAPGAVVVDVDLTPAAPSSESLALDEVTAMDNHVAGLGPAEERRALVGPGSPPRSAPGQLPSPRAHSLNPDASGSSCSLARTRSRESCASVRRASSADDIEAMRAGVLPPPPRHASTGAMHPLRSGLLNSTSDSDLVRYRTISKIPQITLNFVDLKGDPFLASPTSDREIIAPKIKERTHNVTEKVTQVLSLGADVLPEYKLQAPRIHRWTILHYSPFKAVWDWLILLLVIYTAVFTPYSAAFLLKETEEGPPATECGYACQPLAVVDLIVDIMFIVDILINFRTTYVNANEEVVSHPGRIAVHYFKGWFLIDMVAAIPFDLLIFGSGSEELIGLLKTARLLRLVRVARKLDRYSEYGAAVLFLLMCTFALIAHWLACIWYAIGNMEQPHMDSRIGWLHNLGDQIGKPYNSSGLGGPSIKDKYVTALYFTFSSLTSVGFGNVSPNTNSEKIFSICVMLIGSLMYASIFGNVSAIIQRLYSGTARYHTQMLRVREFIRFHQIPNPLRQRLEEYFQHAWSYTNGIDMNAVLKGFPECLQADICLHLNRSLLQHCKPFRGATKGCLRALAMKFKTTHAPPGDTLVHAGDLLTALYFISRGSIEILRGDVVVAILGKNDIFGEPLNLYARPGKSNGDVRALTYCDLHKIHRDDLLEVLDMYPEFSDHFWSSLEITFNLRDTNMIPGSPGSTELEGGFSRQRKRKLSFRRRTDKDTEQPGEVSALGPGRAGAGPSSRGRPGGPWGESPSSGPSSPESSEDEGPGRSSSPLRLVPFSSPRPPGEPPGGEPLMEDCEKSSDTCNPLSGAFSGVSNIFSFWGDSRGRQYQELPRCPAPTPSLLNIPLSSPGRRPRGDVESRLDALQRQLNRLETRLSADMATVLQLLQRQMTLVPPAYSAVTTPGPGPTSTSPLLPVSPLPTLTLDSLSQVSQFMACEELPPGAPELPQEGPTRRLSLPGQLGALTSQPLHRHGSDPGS

| Compound | hERG current change (%, negative = inhibition) at 1uM |
| --- | --- |
| COC(=O)c1ccc(NS(=O)(=O)c2cc(-c3cc(C)no3)ccc2OC)cc1 | 10.1% |
| COc1cc2c(C(=O)NCc3ccc4c(c3)OCO4)cn(C)c(=O)c2cc1OC | 10.8% |
| CCOC(=O)C1(Cc2cccc(F)c2)CCN(C(=O)c2cnc(C)cn2)CC1 | -6.31% |
| CC(Sc1n[nH]c(N)n1)C(=O)Nc1ccc(Cl)cn1 (stereo not shown) | 22% |
| CCCCN(CC)CCCNC(=O)c1cc2c(=O)n(C)c3ccccc3c2n1C | -14.2% |
| CCOC(=O)N1CCN(c2c(N3CCN(c4ccccc4F)CC3)c(=O)c2=O)CC1 | -14.6% |
| O=C(CCCN1C(=O)c2ccccc2C1=O)Nc1nnc(C2CC2)s1 | 19% |
| CC1CN(c2ccc(Cl)cc2[N+](=O)[O-])CCN1S(C)(=O)=O (stereo not shown) | -15.1% |
| Cc1ccccc1N=C1NC(=O)C(CO)(CO)S1 | 10.1% |
| O=C(Nc1cccc(C(=O)NC2CCCCC2)c1)c1ccccc1 | 13.3% |
| Cn1ncc(Br)c1C(=O)Nc1cccc(C(F)(F)F)c1 | 9.02% |
| O=C(CCc1ccccc1)Nc1ccc(NC(=O)C2CCCCC2)nc1 | 12.4% |
| CCCn1c(SCC(=O)NCCc2ccccc2)nnc1C(C)C | 10.1% |
| CC1CN(C(=O)COC(=O)/C=C/c2ccc(C(F)(F)F)cc2)CC(C)O1 (stereo not shown) | 9.6% |
| O=C(COc1ccccc1)Nc1ccc(-c2nnc(-c3ccco3)o2)cc1 | 9.91% |
| NC(=NCc1ccco1)NC(=O)c1ccc(Cl)cc1 | -3.12% |
| NC(=S)N=Nc1ccc(NN=C(N)N)cc1 | 9.26% |
| CCC(CC)C(=O)NN(C(=O)c1ccncc1)C1CC(=O)N(c2ccccc2)C1=O (stereo not shown) | 12.1% |
| COc1ccc(OCC(O)CN2CCN(Cc3ccc4c(c3)OCO4)CC2)cc1.Cl (stereo not shown) | -9.87% |
| CS(=O)(=O)c1ccc(NCCc2ccccn2)c([N+](=O)[O-])c1 | -2.48% |
| CCCCN1CC[C@H]2C=CC[C@@H](C(=O)Nc3ccc(Cl)cc3Cl)[C@H]2C1=O | 3.29% |
| O=C(NNC(=O)C12CC3CC(CC(C3)C1)C2)c1ccccc1F | 6.91% |
| Cc1ccc(C(=O)NS(=O)(=O)c2ccc(C)cc2)cc1 | 20.7% |
| O=C(N1CCOCC1)N(CCN1CCOCC1)Cc1cccc2ccccc12 | 7.6% |
| CCn1nc(C)c(C2C(C#N)=C(N)OC3=C2C(=O)CC(C)(C)C3)c1C (stereo not shown) | 9.51% |
